Source: US4556673A, “Use of phthalyltaurine sulfonamide derivatives in treating epilepsy and arrythmia” (priority 1980, dated 1985)
The name of at least one read-out is uncertain.

Test system: perfused Langendorff's rat heart
Test: Arrhythmia induced by K+ deficiency in perfused Langendorff's rat heart
Details: 10^-4 M

Row | SMILES | Development of arrhythmia. Percentage change in time
1 | NS(=O)(=O)CCN1C(=O)c2ccccc2C1=O [2-Phthalimidoethanesulfone amide, 2-phthalimidoethane sulfonamide] | +23,6%
2 | CN(C)S(=O)(=O)CCN1C(=O)c2ccccc2C1=O [2-Phthalimidoethanesulfone dimethylamide, 2-phthalimidoethanesulfone dimethylamide] | -5,1%
3 | CCNS(=O)(=O)CCN1C(=O)c2ccccc2C1=O [2-Phthalimidoethanesulfone ethylamide] | -4,7%
4 | CNS(=O)(=O)CCN1C(=O)c2ccccc2C1=O [2-Phthalimidoethanesulfone methylamide] | +22,7%
5 | CCCCNS(=O)(=O)CCN1C(=O)c2ccccc2C1=O [2-Phthalimidoethanesulfone n-butylamide] | +4,9%
6 | CCCNS(=O)(=O)CCN1C(=O)c2ccccc2C1=O [2-Phthalimidoethanesulfone n-propylamide] | +10,3%
7 | O=C1c2ccccc2C(=O)N1CCS(=O)(=O)N1CCCC1 [2-Phthalimidoethanesulfone pyrrolidide] | +0,2%
8 | CC(C)(C)NS(=O)(=O)CCN1C(=O)c2ccccc2C1=O [2-Phthalimidoethanesulfone tert-butylamide] | +8,5%
9 | CC(=O)NS(=O)(=O)CCN1C(=O)c2ccccc2C1=O [2-Phthalimidoethanesulfonyl acetamide, 2-phthalimidoethanesulfonyl acetamide] | +26,3%
10 | CCN(CC)CC(=O)Nc1c(C)cccc1C [Lidocaine, reference compound] | +30,9%
